{"source": "PubChem BioAssay AID624417", "about": "(National Center for Advancing Translational Sciences (NCATS), 2012)", "note": "Hit rate of the full screen: of about 410,000 compounds, about 6,400 (1.6%) were called active. Inconclusive results, whose numbers are uncertain, are shown with a selection of clear calls. Calls follow the shape of the dose curve; as a rule, active = well fitted inhibition curve with a large enough effect; inconclusive = small, poorly fitted or top-dose-only effect; inactive = no such curve, though single readings can be large or run the other way. No potency is given beside an inconclusive call; the fits are too rough. % is scaled to controls: 0 for no effect and ±100 for the full control effect; potency is read from the fitted curve at half-maximal effect; tags tell the direction and shape of the fitted curve."}
{"target": "Glucagon-like peptide 1 receptor (Homo sapiens) (UniProt P43220)", "sequence (P43220 whole entry, looked up)": "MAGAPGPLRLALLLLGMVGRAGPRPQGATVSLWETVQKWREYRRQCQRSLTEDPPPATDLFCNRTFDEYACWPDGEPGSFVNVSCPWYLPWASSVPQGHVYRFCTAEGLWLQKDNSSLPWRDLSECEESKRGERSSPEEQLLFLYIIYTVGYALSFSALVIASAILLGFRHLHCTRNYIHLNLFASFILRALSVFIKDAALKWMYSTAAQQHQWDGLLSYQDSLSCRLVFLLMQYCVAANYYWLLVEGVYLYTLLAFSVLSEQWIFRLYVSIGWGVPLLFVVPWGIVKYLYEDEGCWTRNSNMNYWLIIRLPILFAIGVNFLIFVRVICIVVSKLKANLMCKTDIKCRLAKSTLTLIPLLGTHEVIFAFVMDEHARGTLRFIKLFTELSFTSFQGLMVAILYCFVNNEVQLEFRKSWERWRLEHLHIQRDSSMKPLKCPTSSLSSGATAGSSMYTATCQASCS", "experiment": "qHTS of GLP-1 Receptor Inverse Agonists (Inhibition Mode); also: nearly all actives have a fitted effect of over 55% in size", "conditions": "HEK293 GLP-1R CRE-luciferase, luminescence, 24 h, GLP-1R form is constitutively active; activity change, negative = inhibition: at 38.3 µM (top of the series) unless noted", "in_short": "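Luminescence readout: a drop in cAMP-driven luciferase signal flags inverse agonism at a constitutively active GLP-1R stably expressed in HEK293. Compound exposure lasted 24 hr at 37 deg C, 5% CO2.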"}
{"smiles": "C=CCN(CC=C)C(=O)c1cccc(OC2CCN(CC(C)(C)C)CC2)c1", "Potency": "inconclusive [inhibitor, partial curve, poor fit]"}
{"smiles": "Cn1ccnc1SCC(=O)Nc1ccc2c(c1)OCCO2", "Potency": "inconclusive [inhibitor, single point]"}
{"smiles": "O=C(Nc1ccccc1N1CCOCC1)c1cccc(Oc2ccccc2)c1", "Potency": "inconclusive [inhibitor, single point]"}
{"smiles": "O=C(CSc1nnc(-c2ccccc2)n1Cc1ccccc1)NNC(=O)c1ccccc1O", "Potency": "inconclusive [inhibitor, single point]"}
{"smiles": "Cc1ccc(NS(=O)(=O)c2cc(NC(=O)c3ccc4c(c3)NC(=O)CS4)ccc2Cl)c(C)c1", "Potency": "active: 2.51 µM"}
{"smiles": "CCOC(=O)C1CCCN(C(=O)c2ccc(Cl)c(S(=O)(=O)N3CCc4ccccc43)c2)C1", "note": "(stereo not given)", "Potency": "inconclusive [inhibitor, partial curve, poor fit]"}
{"smiles": "O=C(Nc1ccccc1)OCCOc1ccccc1Br", "Potency": "inconclusive [inhibitor, single point]"}
{"smiles": "O=C(CSc1nnc(C2CC2)n1-c1ccccc1)NCCc1ccc(F)cc1", "Potency": "inconclusive [inhibitor, partial curve, poor fit]"}
{"smiles": "CN1CCN(CCc2nc3cc(NC(=O)COc4ccc(Cl)cc4)ccc3n2C)CC1", "Potency": "active: 10 µM"}
{"smiles": "CNS(=O)(=O)c1cccc(C(=O)OCC(=O)c2ccc3c(c2)OCCO3)c1", "Potency": "inconclusive [inhibitor, single point]"}
{"smiles": "COC(=O)C1CN(Cc2ccccc2)C(=O)C1=O", "note": "(stereo not given)", "activity change, negative = inhibition": "inactive: -23.5%"}
{"smiles": "CCc1ccc(CN(C)Cc2nc(Cc3ccccc3)no2)nc1", "Potency": "inconclusive [inhibitor, single point]"}
{"smiles": "O=C(c1ccc(CN2CCc3ccccc3C2)cc1)N1CCN(c2ccc(F)cc2)CC1", "Potency": "active: 2 µM"}
{"smiles": "CC(=O)Oc1c(C)c(OC(C)=O)c2c(c1C(C)=O)OC1CC(=O)C(C(C)=O)=C(O)C21C", "note": "(stereo not given)", "Potency": "inconclusive [inhibitor, partial curve, poor fit]"}
{"smiles": "Cc1cc(NC(=S)NC(=O)CC(C)C)ccc1Br", "activity change, negative = inhibition": "inactive: 0%"}
{"smiles": "CCc1ccc(N=c2c([N+](=O)[O-])nn(-c3ccccc3)n2O)cc1", "activity change, negative = inhibition": "inactive: -9.13%"}
{"smiles": "COCc1ccc(C(=O)N2CCCC(N3CCN(c4cccc(Cl)c4)CC3)C2)s1", "note": "(stereo not given)", "Potency": "inconclusive [inhibitor, single point]"}
{"smiles": "COc1ccc(CN2CCN(C(=O)c3ccc(S(=O)(=O)N4CCCCCC4)cc3)CC2)cc1F", "Potency": "inconclusive [inhibitor, partial curve, poor fit]"}
{"smiles": "COc1cccc(CN(C)C(=O)Nc2cccc(C(F)(F)F)c2)c1OC", "Potency": "inconclusive [inhibitor, single point]"}
{"smiles": "N#CC(c1ccccc1)C(CC(=O)c1ccccc1)c1ccccc1", "note": "(stereo not given)", "Potency": "inconclusive [inhibitor, partial curve, poor fit]"}
{"smiles": "Cc1cccc(NC(=O)CSCC(=O)N2CCCc3ccccc32)c1", "Potency": "inconclusive [inhibitor, single point]"}
{"smiles": "COc1cccc(NC(=O)N2CCC(CN3CCOCC3)CC2)c1", "activity change, negative = inhibition": "inactive: 15.8%"}
{"smiles": "CCN(CC)S(=O)(=O)c1ccc(N2CCOCC2)c(NC(=O)C2COc3ccccc3O2)c1", "note": "(stereo not given)", "Potency": "inconclusive [inhibitor, single point]"}
{"smiles": "COc1ccc(N2C(=O)CCSC23C(=O)N(Cc2ccc(F)cc2)c2ccccc23)cc1Cl", "note": "(stereo not given)", "Potency": "inconclusive [inhibitor, partial curve, poor fit]"}
{"smiles": "Cc1ccc(-n2ncc3c2CCCC3NC(=O)c2ccoc2)cc1C", "note": "(stereo not given)", "Potency": "inconclusive [inhibitor, partial curve]"}
{"smiles": "COCCCNC(=S)Nc1cc2oc3ccccc3c2cc1OC", "Potency": "inconclusive [inhibitor, partial curve, poor fit]"}
{"smiles": "CCc1ccccc1NC(=O)Cn1c(=O)ccc2cc(S(=O)(=O)N3CCC(C)CC3)ccc21", "activity change, negative = inhibition": "inactive: 5.88%"}
{"smiles": "CCOc1ccc(Cl)cc1-c1cc(C(=O)Nc2ccc(C(C)C)cc2)[nH]n1", "Potency": "inconclusive [inhibitor, full curve, poor fit]"}
{"smiles": "CC(CNS(=O)(=O)c1ccccc1)(c1ccccc1)N1CCCCC1", "note": "(stereo not given)", "Potency": "inconclusive [inhibitor, partial curve, poor fit]"}
{"smiles": "CCN1CCN(c2cc(C)c3cc(NC(=O)c4cc(OC)cc(OC)c4)ccc3n2)CC1", "Potency": "inactive"}
{"smiles": "COc1ccc(Br)cc1CNC(=O)CCSCc1ccc(Cl)cc1", "Potency": "inconclusive [inhibitor, single point]"}
{"smiles": "O=c1c(Cc2ccc(F)cc2)c(O)ccn1Cc1cccc(Cl)c1", "Potency": "active: 7.94 µM"}
{"smiles": "COc1ccc2cc(/C=N/NC(=O)c3ccc(CN(c4ccc(C)c(C)c4)S(C)(=O)=O)cc3)c(Cl)nc2c1", "Potency": "inconclusive [inhibitor, full curve, poor fit]"}
{"smiles": "O=C(Nc1ccccc1)N1CCCN(Cc2ccccc2F)C1", "Potency": "inconclusive [inhibitor, full curve, poor fit]"}
{"smiles": "Cc1ccc(C(=O)Nc2cccc(C(F)(F)F)c2)cc1Nc1ccccn1", "Potency": "inconclusive [inhibitor, single point]"}
{"smiles": "C=CCC1(O)CC(c2ccco2)NC(c2ccco2)C1CCC", "note": "(stereo not given)", "Potency": "inconclusive [inhibitor, single point]"}
{"smiles": "CCOC(=O)C(CC)Sc1nnc(COc2ccc(C)cc2)n1-c1ccccc1", "note": "(stereo not given)", "Potency": "inconclusive [inhibitor, partial curve, poor fit]"}
{"smiles": "CC1CCN(S(=O)(=O)c2ccc3c(c2)N(CC(=O)Nc2ccc(F)c(Cl)c2)C(=O)CO3)CC1", "Potency": "inconclusive [inhibitor, single point]"}
{"smiles": "CCN(CC(=O)NCc1ccc(Cl)cc1)C(=O)CCOc1ccccc1C", "Potency": "inconclusive [inhibitor, full curve, poor fit]"}
{"smiles": "CCCn1c(SCC(=O)Nc2ccccc2OC)nnc1-c1ccco1", "Potency": "inconclusive [inhibitor, full curve, poor fit]"}
